# In PubChem BioAssay AID588342 (National Center for Advancing Translational Sciences (NCATS), 2011):
# Where “and” joins values, the source holds several entries; their conditions need not be identical. Identical values can stand only once. Hit rate of the full screen: of about 360,000 compounds, about 25,000 (6.9%) were called active. The inconclusive results got no clear call from the source; some entries with a clear call stand among them for comparison. Calls follow the shape of the dose curve; as a rule, active = well fitted inhibition curve with a large enough effect; inconclusive = small, poorly fitted or top-dose-only effect; inactive = flat fitted curve, though single readings scatter. Potencies beside an inconclusive call are fits to weak or partial responses and may not hold up.
# Biological target: Luciferin 4-monooxygenase (Photinus pyralis) (UniProt P08659)
# UniProt P08659, sequence (P08659 whole entry, looked up): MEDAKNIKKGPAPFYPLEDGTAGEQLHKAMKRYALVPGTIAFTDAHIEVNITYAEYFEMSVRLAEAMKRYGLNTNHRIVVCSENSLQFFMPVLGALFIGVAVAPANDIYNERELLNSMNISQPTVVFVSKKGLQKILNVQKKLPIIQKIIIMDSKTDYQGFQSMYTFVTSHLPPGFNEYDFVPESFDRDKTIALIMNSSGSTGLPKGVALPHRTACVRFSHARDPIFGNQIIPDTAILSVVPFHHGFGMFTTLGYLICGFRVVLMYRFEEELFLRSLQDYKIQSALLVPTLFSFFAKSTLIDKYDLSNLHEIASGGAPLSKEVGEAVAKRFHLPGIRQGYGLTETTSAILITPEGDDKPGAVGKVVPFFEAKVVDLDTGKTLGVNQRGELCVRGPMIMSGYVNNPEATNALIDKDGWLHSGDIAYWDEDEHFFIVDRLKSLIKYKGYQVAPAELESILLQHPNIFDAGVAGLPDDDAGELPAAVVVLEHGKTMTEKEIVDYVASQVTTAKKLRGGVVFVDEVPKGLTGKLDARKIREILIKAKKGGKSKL
# Assay: qHTS profiling assay for firefly luciferase inhibitor/activator using purifed enzyme and Km concentrations of substrates (counterscreen for miR-21 project); also: nearly all actives have a fitted effect of over 55% in size;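 as to activity change, negative = inhibition: plate controls were vehicle for no effect and reference inhibitor for full effect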
# Settings: purified FLuc, luminescence inhibition; activity change, negative = inhibition: at 57.5 µM (top of the series)
# Outline: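 Purified P. pyralis luciferase (10nM final) with 10uM D-luciferin and 10uM ATP (Km levels) in 50mM Tris acetate pH 7.5, 10mM Mg acetate, 0.01% Tween-20, 0.05% BSA; qHTS 6-point titration, ~60 µM downward; luminescence read.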
# Potency is read from the fitted curve at half-maximal effect; tags tell the direction and shape of the fitted curve.
SMILES,Potency,"activity change, negative = inhibition"
Cc1cccc(NC(=O)CSc2nccn2Cc2ccco2)c1,active: 15.1 µM,
Cn1c(CN2CCCCC2)nc2cc(NC(=O)c3cccs3)ccc21,"inconclusive: 37.9 µM [inhibitor, single point]",
Clc1ccc(/C=C/c2ncc[nH]2)c(Cl)c1,active: 2.39 µM,
CCOc1cccc(Nc2cc3n(c(=O)n2)CCc2cc(OC)c(OC)cc2-3)c1,"inconclusive: 13.5 µM [inhibitor, partial curve, poor fit]",
O=C(NCCNC(=O)c1ccccn1)c1ccc(-c2ccccc2)cc1,"inconclusive: 37.9 µM [inhibitor, partial curve, poor fit]",
COc1ccc(C(=O)Nc2cccc(NC(C)=O)c2)cc1OC,"inconclusive: 21.3 µM [inhibitor, partial curve, poor fit]",
CSc1ccccc1C(=O)Nc1nc2ccccc2[nH]1,"inconclusive: 8.49 µM [inhibitor, partial curve]",
O=C(/C=N/O)Nc1cccnc1,,inactive: -1.59%
Cc1csc(NC(=O)CSc2nnc(-c3ccncc3)o2)n1,,inactive: -1.93%
O=C(Nc1nnc(C2CC2)s1)c1cccc(S(=O)(=O)N2CC(c3ccccc3)CC2=O)c1 (stereo not drawn),"inconclusive: 21.3 µM [inhibitor, partial curve, poor fit]",
COc1cccc(N2CCN(c3cnc4ccccc4n3)CC2)c1,active: 23.9 µM,
CCCCOc1ccc(-c2ncc(C(=O)OCC)c(N)n2)cc1,active: 2.69 µM,
COc1cc(/C=N/NC(=O)c2cc(-c3cccn3C)n[nH]2)cc(OC)c1OC,"inconclusive: 37.9 µM [inhibitor, partial curve, poor fit]",
COc1cc(/C=C2\SC(=S)N(c3cccnc3)C2=O)ccc1O,,inactive: -6.75%
C/C(=N\Nc1nc(N)cc(Cl)n1)c1ccc(F)cc1,"inconclusive: 21.3 µM [inhibitor, partial curve]",
CCOc1ccc2[nH]c3c(N4CCN(C(=O)c5ccco5)CC4)ncnc3c2c1,"inconclusive: 26.9 µM [inhibitor, single point]",
Nc1ccc(C(=O)OCc2nc3cc4ccccc4cc3[nH]2)cc1,"inconclusive: 19 µM [inhibitor, partial curve]",
Cc1ccc(SCC(=O)Nc2ccc(N3CCN(C)CC3)c(F)c2)cc1,active: 15.1 µM,
CCOC(=O)c1ccccc1NC(=O)N1CCCn2nc(C)cc21,,inactive: -2.63%
COc1ccc(C(=O)NNC(=O)c2ccccc2[N+](=O)[O-])cc1,"inconclusive: 26.9 µM [inhibitor, partial curve]",
Cc1ccc2c(CC(=O)NNC(=O)c3ccccc3O)coc2c1,,inactive: -24.6%
CCOC(=O)c1cnn(-c2cccc(Cl)c2)c1N,"inconclusive: 16.9 µM [inhibitor, partial curve, poor fit]",
COc1ccc(C(=O)Nc2cccc(OCc3cc(=O)n4c5c(sc4n3)CCCC5)c2)cc1OC,active: 2.39 µM,
COc1cccc(/C=N/n2nnnc2N)c1O,"inconclusive: 37.9 µM [inhibitor, single point]",
O=C(N/N=C/c1ccccc1C(F)(F)F)c1ccc2nc[nH]c2c1,"inconclusive: 21.3 µM [inhibitor, partial curve]",

SMILES,Potency,"activity change, negative = inhibition"
Cc1nc(-c2cccc(C(F)(F)F)c2)sc1C(=O)O,"inconclusive: 26.9 µM [inhibitor, partial curve]",
CCOc1ccc(-c2nnn(CC(=O)N3CCCC(C)C3)n2)cc1 (stereo not drawn),"inconclusive: 26.9 µM [inhibitor, partial curve, poor fit]",
Cc1ccc(OCc2cc(C(=O)NC(C)Cc3cccnc3)no2)cc1C (stereo not drawn),active: 13.5 µM,
CCOC(=O)c1cnc(SCc2nc(N)nc(Nc3ccc(C)cc3)n2)nc1N,"inconclusive: 4.78 µM [inhibitor, partial curve, poor fit]",
CCc1ccc(OCCCC(=O)NCc2ccccc2)cc1,,inactive: -16.4%
O=C(O)C1CCCCC1C(=O)Nc1ccc(-c2ccccc2)cc1 (stereo not drawn),active: 16.9 µM,
Cc1cc(C(=O)COC(=O)c2ccccc2O)c(C)n1CC1CCCO1 (stereo not drawn),active: 0.0849 µM,
O=C(CSC1=NCCS1)Nc1nc2ccccc2s1,active: 19 µM,
O=C(Nc1ccsc1C(=O)O)c1cccc(Oc2ccccc2)c1,active: 0.757 µM,
Clc1ccccc1CO/N=C1\CCCc2nonc21,"inconclusive: 21.3 µM [inhibitor, partial curve, poor fit]",
COC(=O)C1=C(C)NC(C)=C(C(=O)OCC2CCCO2)C1c1ccc(Cl)c([N+](=O)[O-])c1 (stereo not drawn),,inactive: 3.09%
O=C(N/N=C/C(Br)=C\c1ccccc1)c1ccc2nc[nH]c2c1,active: 12 µM,
S=c1[nH]c(-c2ccc(Cl)cc2)cs1,"inconclusive: 23.9 µM [inhibitor, partial curve]",
Cc1ccccc1Oc1ccc(Oc2ccccc2C)nn1,"inconclusive: 10.7 µM [inhibitor, partial curve]",
Cc1cc(Nc2ccc(Br)cc2)nc(-c2ccccc2O)n1,"inconclusive: 37.9 µM [inhibitor, partial curve, poor fit]",
CC(=O)Nc1cccc(Nc2nc(-c3ccccc3)nc3ccccc23)c1,"inconclusive: 37.9 µM [inhibitor, partial curve, poor fit]",
CCOC(=O)c1c(C)n(-c2ccccc2)c2ccc(OC(=O)c3cccc(Cl)c3)cc12,,inactive: 1.19%
Cc1ccccc1C(=O)Nc1nc(-c2ccc(Br)cc2)ns1,"inconclusive: 10.7 µM [inhibitor, partial curve]",
CC(C)NC(=O)C1CCC(Cn2c(=O)c3sccc3n(CC(=O)Nc3ccccc3)c2=O)CC1 (stereo not drawn),,inactive: 0.127%
CC(C)Oc1ccc(CNC(=O)C2CCN(C(=O)N3CC(C)Oc4ccccc43)CC2)cc1 (stereo not drawn),"inconclusive: 1.9 µM [inhibitor, full curve]",
FC(F)(F)c1cc(-c2cccc(Br)c2)nc2ncnn12,,inactive: -0.981%
CCCc1cc2c(=O)c(-c3ccccn3)coc2cc1OC,active: 4.78 µM,
CCOC(=O)C1CCC(CN(Cc2ccc(OC)cc2)S(=O)(=O)c2ccc(F)c(C(=O)Nc3cc(C)ccc3C)c2)CC1 (stereo not drawn),,inactive: 3.04%
CCc1ccccc1OCC(=O)Nc1cccc(S(=O)(=O)NC2=NCCC2)c1,active: 19 µM,
COc1cc(OC)cc(OC(=O)C2CCN(C(=O)c3ccc(Cl)cc3)CC2)c1,,inactive: 0.647%

SMILES,Potency,"activity change, negative = inhibition"
CCOc1ccc(NC(=O)c2ccc3snnc3c2)cc1,"inconclusive: 3.79 µM [inhibitor, partial curve, poor fit] and inconclusive: 10.7 µM [inhibitor, partial curve, poor fit]",
COc1ccc(S(=O)(=O)n2nc(OC(=O)c3cccs3)cc2NC(=O)c2cccs2)cc1,,inactive: -0.457%
CCOc1ccc(NC2=C(OC)C(=O)c3ccccc3C2=O)cc1,active: 16.9 µM,
CCN(CC(=O)NCc1ccc(Cl)cc1)C(=O)CNS(=O)(=O)c1ccc(NC(C)=O)cc1,"inconclusive: 26.9 µM [inhibitor, single point]",
O=C(CCCCn1c(=O)c2ccccc2n(Cc2ccccc2)c1=O)NC1CCN(Cc2ccccc2)CC1,,inactive: 2.48%
CCSc1ncccc1-c1nc2ccccc2[nH]1,"inconclusive: 19 µM [inhibitor, partial curve]",
Oc1c(C(c2ccccc2Cl)N2CCN(Cc3ccccc3)CC2)sc2nc(-c3ccco3)nn12 (stereo not drawn),"inconclusive: 21.3 µM [inhibitor, partial curve, poor fit]",
CN(C)Cc1cccc([N+](=O)[O-])c1O,,inactive: -0.811%
O=C(O)Cc1sc(N/N=C\c2ccccc2)nc1-c1ccccc1,active: 23.9 µM,
CCOC(=O)c1sc(NC(=O)CSc2nnc(-c3ccc(OC)cc3)n2CCOC)nc1C,"inconclusive: 30.1 µM [inhibitor, partial curve, poor fit]",
Cc1ccc2nc(N/N=C/c3ccccc3F)nc(-c3ccccc3)c2c1,"inconclusive: 15.1 µM [inhibitor, partial curve]",
O=C(NC1CCCCC1)c1ccc(CSc2nc3ccncc3n2Cc2ccccc2F)cc1,"inconclusive: 21.3 µM [inhibitor, single point]",
O=C(NCC1CCCO1)c1c(O)c2c([nH]c1=O)CCCC2 (stereo not drawn),"inconclusive: 21.3 µM [inhibitor, partial curve, poor fit]",
O=C1CC2(CCN(C(=O)C3CC(=O)N(c4ccccc4)C3)CC2)Oc2ccccc21 (stereo not drawn),,inactive: 4.69%
O=c1c(-c2ccc(Cl)cc2)cnc2n1CCS2,"inconclusive: 37.9 µM [inhibitor, single point]",
COc1cc(OC)cc(-c2nnc(SCC(=O)Nc3ccc(C(=O)O)cc3)s2)c1,"inconclusive: 26.9 µM [inhibitor, partial curve, poor fit]",
COCCCNC(=O)c1ccc2c(c1)nc1n2CCCCC1,"inconclusive: 26.9 µM [inhibitor, partial curve]",
COc1ccc(NC(=O)NCCn2nnc3cc(S(=O)(=O)N(C)C)ccc32)cc1,,inactive: -1.96%
CCOC(=O)c1c(C)[nH]c(C)c1S(=O)(=O)N(C)CC(=O)NCc1cccc(Br)c1,inactive,
Cn1c(=O)c2c([nH]c(=S)n2Cc2ccc(Cl)cc2)n(C)c1=O,"inconclusive: 37.9 µM [inhibitor, partial curve, poor fit]",
Cc1ccc(Cn2cnc3sc4c(c3c2=O)CCC4)c(C)c1,"inconclusive: 30.1 µM [inhibitor, single point]",
Cc1ccccc1Cn1cnc2nc3c(cc2c1=O)CC(C)CC3 (stereo not drawn),"inconclusive: 37.9 µM [inhibitor, single point]",
O=C(NC12CC3CC(CC(C3)C1)C2)c1cncc(Br)c1,"inconclusive: 23.9 µM [inhibitor, partial curve]",
